Source: the supplement of paper PMC12067093, “Discovery and optimisation of a covalent ligand for TRIM25 and its application to targeted protein ubiquitination” (Chemical Science, 2025)
Of roughly 21,000 targets only a part is listed; those with the largest changes were picked by preference.
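Note: competitive chemoproteomic profiling in live THP-1 cells with an iodoacetamide desthiobiotin (IA-DTB) probe, comparing probe-labelled peptide intensities in compound-treated cells against DMSO-treated controls.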

Sequence of UniProt P11387 (P11387 whole entry, looked up): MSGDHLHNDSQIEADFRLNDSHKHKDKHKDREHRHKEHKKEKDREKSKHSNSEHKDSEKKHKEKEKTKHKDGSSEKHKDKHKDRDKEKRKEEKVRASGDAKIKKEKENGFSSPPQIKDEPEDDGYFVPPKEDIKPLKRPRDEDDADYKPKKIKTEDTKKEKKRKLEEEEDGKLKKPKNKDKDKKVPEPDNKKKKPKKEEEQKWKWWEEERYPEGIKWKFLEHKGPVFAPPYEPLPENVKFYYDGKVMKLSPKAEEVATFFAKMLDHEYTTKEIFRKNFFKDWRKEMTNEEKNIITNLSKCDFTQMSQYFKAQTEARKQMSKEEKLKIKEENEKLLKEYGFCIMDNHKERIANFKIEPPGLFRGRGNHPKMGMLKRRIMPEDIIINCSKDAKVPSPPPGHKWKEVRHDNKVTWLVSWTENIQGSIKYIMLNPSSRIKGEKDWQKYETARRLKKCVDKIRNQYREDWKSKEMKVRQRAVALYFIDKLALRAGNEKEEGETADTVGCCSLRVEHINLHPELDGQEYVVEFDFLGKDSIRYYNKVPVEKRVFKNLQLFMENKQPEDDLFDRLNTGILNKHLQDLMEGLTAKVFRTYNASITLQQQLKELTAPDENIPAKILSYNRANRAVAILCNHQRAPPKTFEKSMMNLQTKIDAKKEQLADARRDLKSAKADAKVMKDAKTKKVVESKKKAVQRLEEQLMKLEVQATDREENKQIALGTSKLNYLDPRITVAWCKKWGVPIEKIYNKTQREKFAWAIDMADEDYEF
Sequence of UniProt Q9Y6J9 (Q9Y6J9 whole entry, looked up): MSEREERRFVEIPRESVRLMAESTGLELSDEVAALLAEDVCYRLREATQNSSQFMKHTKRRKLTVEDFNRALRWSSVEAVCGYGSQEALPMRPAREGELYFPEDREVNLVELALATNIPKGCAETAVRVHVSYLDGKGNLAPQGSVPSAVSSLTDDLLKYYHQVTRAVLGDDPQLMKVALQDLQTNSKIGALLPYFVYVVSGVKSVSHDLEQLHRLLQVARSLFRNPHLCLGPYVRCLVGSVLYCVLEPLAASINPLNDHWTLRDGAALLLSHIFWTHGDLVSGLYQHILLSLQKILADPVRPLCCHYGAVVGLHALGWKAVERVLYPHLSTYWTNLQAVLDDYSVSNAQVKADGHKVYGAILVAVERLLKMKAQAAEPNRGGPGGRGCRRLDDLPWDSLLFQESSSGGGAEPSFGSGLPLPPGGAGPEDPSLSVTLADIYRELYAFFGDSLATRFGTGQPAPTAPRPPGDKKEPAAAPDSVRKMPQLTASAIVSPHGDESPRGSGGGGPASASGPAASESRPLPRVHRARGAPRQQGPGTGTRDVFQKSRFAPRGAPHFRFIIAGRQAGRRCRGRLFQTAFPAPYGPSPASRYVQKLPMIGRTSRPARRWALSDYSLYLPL
Sequence of UniProt Q9Y5L0 (Q9Y5L0 whole entry, looked up): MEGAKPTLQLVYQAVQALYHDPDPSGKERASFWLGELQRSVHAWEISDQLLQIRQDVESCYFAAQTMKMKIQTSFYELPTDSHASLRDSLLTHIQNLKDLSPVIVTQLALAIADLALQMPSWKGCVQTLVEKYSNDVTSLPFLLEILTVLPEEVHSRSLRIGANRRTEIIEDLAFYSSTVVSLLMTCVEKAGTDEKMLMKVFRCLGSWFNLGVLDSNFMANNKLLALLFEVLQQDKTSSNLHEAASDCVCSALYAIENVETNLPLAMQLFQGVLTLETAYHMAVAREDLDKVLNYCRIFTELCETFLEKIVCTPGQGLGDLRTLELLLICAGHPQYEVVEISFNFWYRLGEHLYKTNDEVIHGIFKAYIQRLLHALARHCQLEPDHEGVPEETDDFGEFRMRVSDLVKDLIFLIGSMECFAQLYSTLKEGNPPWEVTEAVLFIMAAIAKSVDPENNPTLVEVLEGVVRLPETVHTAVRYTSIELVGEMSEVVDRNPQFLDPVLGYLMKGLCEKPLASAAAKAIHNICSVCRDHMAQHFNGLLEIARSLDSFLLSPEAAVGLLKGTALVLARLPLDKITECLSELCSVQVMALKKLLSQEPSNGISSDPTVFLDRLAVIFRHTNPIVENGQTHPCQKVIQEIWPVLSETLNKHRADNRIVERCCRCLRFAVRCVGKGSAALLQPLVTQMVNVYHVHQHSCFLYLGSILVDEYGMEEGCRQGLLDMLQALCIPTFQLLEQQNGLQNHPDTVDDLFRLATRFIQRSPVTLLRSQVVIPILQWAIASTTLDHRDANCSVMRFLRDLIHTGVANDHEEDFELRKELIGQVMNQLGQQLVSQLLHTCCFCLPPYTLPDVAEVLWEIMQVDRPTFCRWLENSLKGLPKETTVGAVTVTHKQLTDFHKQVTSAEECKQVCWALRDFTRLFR
Sequence of UniProt Q96HA7 (Q96HA7 whole entry, looked up): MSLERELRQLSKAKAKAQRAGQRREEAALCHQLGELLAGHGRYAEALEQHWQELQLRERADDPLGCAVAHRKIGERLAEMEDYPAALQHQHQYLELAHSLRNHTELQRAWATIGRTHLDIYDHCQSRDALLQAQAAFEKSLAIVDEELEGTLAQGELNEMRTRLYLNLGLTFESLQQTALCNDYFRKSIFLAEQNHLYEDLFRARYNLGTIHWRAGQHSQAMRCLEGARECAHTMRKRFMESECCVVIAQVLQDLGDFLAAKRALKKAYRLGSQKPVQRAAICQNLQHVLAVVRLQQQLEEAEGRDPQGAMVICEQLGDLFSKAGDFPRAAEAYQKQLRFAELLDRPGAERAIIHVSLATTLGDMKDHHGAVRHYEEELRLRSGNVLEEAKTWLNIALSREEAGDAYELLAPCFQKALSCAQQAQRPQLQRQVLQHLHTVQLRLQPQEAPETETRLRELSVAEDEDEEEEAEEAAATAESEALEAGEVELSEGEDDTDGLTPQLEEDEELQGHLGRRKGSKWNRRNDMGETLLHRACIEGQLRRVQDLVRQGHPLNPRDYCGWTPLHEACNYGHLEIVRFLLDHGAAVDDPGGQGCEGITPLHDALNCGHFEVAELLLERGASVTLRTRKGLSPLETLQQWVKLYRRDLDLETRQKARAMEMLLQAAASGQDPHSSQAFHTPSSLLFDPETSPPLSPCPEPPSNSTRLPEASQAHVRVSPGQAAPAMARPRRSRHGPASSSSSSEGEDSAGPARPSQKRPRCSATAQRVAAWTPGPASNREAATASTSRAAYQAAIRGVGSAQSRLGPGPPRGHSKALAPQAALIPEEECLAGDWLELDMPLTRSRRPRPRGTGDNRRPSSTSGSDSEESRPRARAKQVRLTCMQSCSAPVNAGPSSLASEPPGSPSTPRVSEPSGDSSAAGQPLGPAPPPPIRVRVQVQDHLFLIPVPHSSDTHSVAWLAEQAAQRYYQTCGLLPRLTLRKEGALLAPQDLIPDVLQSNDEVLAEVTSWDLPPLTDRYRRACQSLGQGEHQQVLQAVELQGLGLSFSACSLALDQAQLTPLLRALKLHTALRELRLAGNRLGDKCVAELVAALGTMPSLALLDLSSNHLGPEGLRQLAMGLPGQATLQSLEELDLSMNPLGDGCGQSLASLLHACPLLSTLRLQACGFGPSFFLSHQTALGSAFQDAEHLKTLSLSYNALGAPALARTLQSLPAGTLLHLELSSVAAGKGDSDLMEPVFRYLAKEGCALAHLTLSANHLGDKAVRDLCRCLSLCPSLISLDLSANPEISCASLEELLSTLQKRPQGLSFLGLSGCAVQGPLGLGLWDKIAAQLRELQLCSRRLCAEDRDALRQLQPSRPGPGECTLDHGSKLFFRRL
Sequence of UniProt Q9Y5Y6 (Q9Y5Y6 whole entry, looked up): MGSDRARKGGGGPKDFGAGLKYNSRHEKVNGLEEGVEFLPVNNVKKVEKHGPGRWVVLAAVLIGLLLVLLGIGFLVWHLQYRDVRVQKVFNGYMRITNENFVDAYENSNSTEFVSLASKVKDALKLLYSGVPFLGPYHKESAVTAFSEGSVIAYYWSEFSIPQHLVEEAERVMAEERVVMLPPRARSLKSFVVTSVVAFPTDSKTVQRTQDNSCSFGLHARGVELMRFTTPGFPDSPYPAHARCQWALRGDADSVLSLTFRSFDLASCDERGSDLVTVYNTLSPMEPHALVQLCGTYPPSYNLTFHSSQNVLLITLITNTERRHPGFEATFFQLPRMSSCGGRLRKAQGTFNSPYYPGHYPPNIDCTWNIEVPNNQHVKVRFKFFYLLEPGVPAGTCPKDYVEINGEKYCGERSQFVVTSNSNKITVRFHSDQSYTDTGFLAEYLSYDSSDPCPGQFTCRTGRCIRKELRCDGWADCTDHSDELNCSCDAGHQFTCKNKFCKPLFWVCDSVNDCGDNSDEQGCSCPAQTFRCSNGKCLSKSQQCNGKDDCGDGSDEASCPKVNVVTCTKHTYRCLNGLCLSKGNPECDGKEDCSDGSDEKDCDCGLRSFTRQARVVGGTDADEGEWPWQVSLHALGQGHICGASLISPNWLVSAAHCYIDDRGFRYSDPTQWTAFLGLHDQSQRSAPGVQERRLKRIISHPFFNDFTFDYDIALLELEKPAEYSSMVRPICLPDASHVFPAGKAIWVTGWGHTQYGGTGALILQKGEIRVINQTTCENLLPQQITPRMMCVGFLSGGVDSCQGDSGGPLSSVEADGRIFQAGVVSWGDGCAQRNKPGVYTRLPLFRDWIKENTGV
Sequence of UniProt Q13148 (Q13148 whole entry, looked up): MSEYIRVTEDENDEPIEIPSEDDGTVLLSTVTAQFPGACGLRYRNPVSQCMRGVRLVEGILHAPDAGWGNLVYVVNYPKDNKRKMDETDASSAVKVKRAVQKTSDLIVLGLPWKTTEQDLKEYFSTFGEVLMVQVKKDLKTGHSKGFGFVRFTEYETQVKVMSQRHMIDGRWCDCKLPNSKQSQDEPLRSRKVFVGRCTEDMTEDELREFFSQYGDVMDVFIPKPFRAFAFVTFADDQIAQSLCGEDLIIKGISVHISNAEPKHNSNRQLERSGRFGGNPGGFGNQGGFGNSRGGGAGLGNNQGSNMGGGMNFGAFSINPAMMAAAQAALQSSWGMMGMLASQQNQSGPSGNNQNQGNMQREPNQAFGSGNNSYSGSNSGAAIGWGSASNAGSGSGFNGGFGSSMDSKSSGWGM

What follows are targets tested with CC1Cc2ccccc2N1C(=O)C1CCCN(C1)C(=O)CCl (mixture of isomers) [TRIM25 ligand 11 (diastereomer mixture)] (assay: probe-labelled cysteine peptide fold change vs DMSO (competition) (log2 fold change); higher = less target engagement (more negative = stronger competition)). Conditions: 10 µM; THP-1; incubation time: 4 h.
With “TARDBP_Q13148_50_YRNPVSQCMR (UniProt Q13148)” the “probe-labelled cysteine peptide fold change” value was -0.0119.
In the case of “TES_Q9UGI8_22_MGLGHEQGFGAPCLK (UniProt Q9UGI8)”, the “probe-labelled cysteine peptide fold change” value is reported as 0.0368.
With “STAM2_O75886_76_VPHVALQALTLLGACVANCGK (UniProt O75886)” the “probe-labelled cysteine peptide fold change” value was -0.414.
“TARSL2_A2RTX5_546_FQQDDAHIFCTVEQIEEEIK (UniProt A2RTX5)” was tested, and the “probe-labelled cysteine peptide fold change” value was 0.614.
“ST13_P50502_209_LLGHWEEAAHDLALACKLDYDEDASAMLK (UniProt P50502)” was tested, and the “probe-labelled cysteine peptide fold change” value was -0.723.
“STIL_Q15468_126_EVPECLEITPTASLPGDFLIPCK (UniProt Q15468)” was tested, and the “probe-labelled cysteine peptide fold change” value was 0.41.
With “TRIM25_Q14258_127_TCLVCMASFCQEHLQPHFDSPAFQDHPLQPPVR (UniProt Q14258)” the “probe-labelled cysteine peptide fold change” value was 0.0645.
“SUGT1_Q9Y2Z0_62_AYCHILLGNYCVAVADAK (UniProt Q9Y2Z0)” was tested, and the “probe-labelled cysteine peptide fold change” value was 0.221.
For “TEP1_Q99973_1468_SWEEAVAAGNSGDPYPMGPFACLVQSLR (UniProt Q99973)”, the “probe-labelled cysteine peptide fold change” value was -0.621.
With “TAF6L_Q9Y6J9_81_WSSVEAVCGYGSQEALPMRPAR (UniProt Q9Y6J9)” the “probe-labelled cysteine peptide fold change” value was -0.207.
In the case of “TANC1_Q9C0D5_800_MDALSCFLIK (UniProt Q9C0D5)”, the “probe-labelled cysteine peptide fold change” value is reported as 0.0833.
“TAF2_Q6P1X5_357_CLAQSLAQQFFGCFISR (UniProt Q6P1X5)” was tested, and the “probe-labelled cysteine peptide fold change” value was 0.121.
With “TOP1_P11387_733_ITVAWCK (UniProt P11387)” the “probe-labelled cysteine peptide fold change” value was -0.0805.
For “TRIP6_Q15654_362+365+368_AYHPGCFTCVVCHR (UniProt Q15654)”, the “probe-labelled cysteine peptide fold change” value was -0.0511.
With “TNPO3_Q9Y5L0_793_DANCSVMR (UniProt Q9Y5L0)” the “probe-labelled cysteine peptide fold change” value was 0.0522.
For “ST14_Q9Y5Y6_567_VNVVTCTK (UniProt Q9Y5Y6)”, the “probe-labelled cysteine peptide fold change” value was -0.0349.
With “TONSL_Q96HA7_537_ACIEGQLR (UniProt Q96HA7)” the “probe-labelled cysteine peptide fold change” value was -0.00845.

Same assay, conditions: 50 µM; THP-1; incubation time: 4 h
In the case of “TARDBP_Q13148_50_YRNPVSQCMR (UniProt Q13148)”, the “probe-labelled cysteine peptide fold change” value is reported as -0.0116.
With “THOC2_Q8NI27_743_DALLDHDLALPLCLLMAQQR (UniProt Q8NI27)” the “probe-labelled cysteine peptide fold change” value was 0.192.
“STAM2_O75886_76_VPHVALQALTLLGACVANCGK (UniProt O75886)” was tested, and the “probe-labelled cysteine peptide fold change” value was 0.0225.
“TBCD_Q9BTW9_457_GACSVGTNVR (UniProt Q9BTW9)” was tested, and the “probe-labelled cysteine peptide fold change” value was 0.142.
With “TOP2B_Q02880-2_7_SGGCGAGAGVGGGNGALTWVNNAAK (UniProt Q02880)” the “probe-labelled cysteine peptide fold change” value was -0.182.
For “STIL_Q15468_126_EVPECLEITPTASLPGDFLIPCK (UniProt Q15468)”, the “probe-labelled cysteine peptide fold change” value was 0.231.
In the case of “SUCLG1_P53597_172_LIGPNCPGVINPGECK (UniProt P53597)”, the “probe-labelled cysteine peptide fold change” value is reported as 0.101.
For “TRIM25_Q14258_127_TCLVCMASFCQEHLQPHFDSPAFQDHPLQPPVR (UniProt Q14258)”, the “probe-labelled cysteine peptide fold change” value was -0.129.
“TET3_O43151_1381_GKPWSPCK (UniProt O43151)” was tested, and the “probe-labelled cysteine peptide fold change” value was -0.338.
For “SUGT1_Q9Y2Z0_62_AYCHILLGNYCVAVADAK (UniProt Q9Y2Z0)”, the “probe-labelled cysteine peptide fold change” value was -0.0203.
“SSH3_Q8TE77_634_TQAFQEQEQGQGQGQGEPCISSTPR (UniProt Q8TE77)” was tested, and the “probe-labelled cysteine peptide fold change” value was -0.167.
In the case of “TCEAL3_Q969E4_44_TECEGKREDEGEPGDEGQLEDEGSQEK (UniProt Q969E4)”, the “probe-labelled cysteine peptide fold change” value is reported as -0.51.
For “TEP1_Q99973_1468_SWEEAVAAGNSGDPYPMGPFACLVQSLR (UniProt Q99973)”, the “probe-labelled cysteine peptide fold change” value was -0.491.
In the case of “TAF6L_Q9Y6J9_81_WSSVEAVCGYGSQEALPMRPAR (UniProt Q9Y6J9)”, the “probe-labelled cysteine peptide fold change” value is reported as -0.0714.
“TLE1_Q04724_47_IKEEFQFLQAQYHSLKLECEK<|>TLE2_Q04725_46_IKEEFQFLQAQYHSLKLECEK (UniProt Q04725+Q04724)” was tested, and the “probe-labelled cysteine peptide fold change” value was -0.216.
“TOP1_P11387_733_ITVAWCK (UniProt P11387)” was tested, and the “probe-labelled cysteine peptide fold change” value was -0.0295.
For “TGFBRAP1_Q8WUH2_32_VNIECVECCGR (UniProt Q8WUH2)”, the “probe-labelled cysteine peptide fold change” value was 0.0274.
In the case of “TDRD7_Q8NHU6_284_EDLNQGILQQFEHWPHICTVEK (UniProt Q8NHU6)”, the “probe-labelled cysteine peptide fold change” value is reported as -0.057.
With “TNPO3_Q9Y5L0_793_DANCSVMR (UniProt Q9Y5L0)” the “probe-labelled cysteine peptide fold change” value was -0.00663.
In the case of “ST14_Q9Y5Y6_567_VNVVTCTK (UniProt Q9Y5Y6)”, the “probe-labelled cysteine peptide fold change” value is reported as 0.048.
For “TADA2B_Q86TJ2_32+35_CTECQDIELCPECFSAGAEIGHHR (UniProt Q86TJ2)”, the “probe-labelled cysteine peptide fold change” value was 0.59.
In the case of “TIAL1_Q01085_205+209_NCTVYCGGIASGLTDQLMR (UniProt Q01085)”, the “probe-labelled cysteine peptide fold change” value is reported as -0.693.
“TMEM94_Q12767_381_CIWGHFLR (UniProt Q12767)” was tested, and the “probe-labelled cysteine peptide fold change” value was -0.0543.
“THBS1_P07996_754_IPDDRDNCPFHYNPAQYDYDRDDVGDR (UniProt P07996)” was tested, and the “probe-labelled cysteine peptide fold change” value was 0.298.
With “TONSL_Q96HA7_537_ACIEGQLR (UniProt Q96HA7)” the “probe-labelled cysteine peptide fold change” value was 0.0855.
